According to the supplement of paper PMC3334620:
Over roughly 33,000 sequences, “E-score (-0.5 to 0.5)” has its median near -0.056; the highest 2% begin near 0.38. This is one part of the list.

target: Stb4 (UniProt P50104); assay: PBM E-score (8-mer binding enrichment) (E-score (-0.5 to 0.5)); higher = stronger / more preferred TF binding; most listed sequences are background and not binding sites; settings: protein concentration: 200 nM; construct: GST-DNA-binding domain
Protocol: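 Universal 'all 10-mer' protein binding microarrays (Agilent AMADID 015681) probed with GST-tagged S. cerevisiae TFs (full-length or DBD) made by in vitro transcription/translation (PURExpress), about 100-200 nM. Bound TF was detected with fluorescent anti-GST. Each ungapped 8-mer (which stands for itself and its reverse complement) is scored by the PBM enrichment score (E-score), a modified Wilcoxon-Mann-Whitney statistic from -0.5 to +0.5, computed with the Universal PBM Analysis Suite. Scale: above 0.35 generally sequence-specific binding.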

Sequence | PBM E-score
GTTTCGCA | -0.131
GGGGCAGA | -0.113
ACCCGCGT | 0.188
ACTGAGTG | 0.0235
GAAGTGTC | 0.181
AGGTTTCA | 0.00894
ACTAAGCA | -0.252
CCTGCTGC | -0.0427
AGCCGATA | 0.344
GGTCTGAA | -0.0589
CTTGACTC | -0.0427
ACTTACGG | 0.201
ATGAGGCC | -0.0823
GCTGTGGA | 0.0235
AAATGGCC | 0.0344
ACAGACGG | 0.0198
GAATCGCC | -0.0885
TTGGTAAA | -0.103
CCCGTGAA | 0.0258
AGGCTTCC | 0.176
CGGATGTA | 0.443
AGGAGGCA | -0.124
TGATCTAA | -0.204
GTAGAAAA | 0.0192
AACATCAC | -0.0473

Sequence | PBM E-score
GGAATCGA | 0.131
TTACAGAA | -0.212
GTATCACA | -0.0302
AGTCGTGG | -0.252
GAACAAAC | 0.0485
ATACACAC | -0.128
CAAAGGGA | -0.311
TGCGTTAA | -0.176
CCGGGCCC | 0.303
AGTACCAA | -0.114
AGCACGTC | -0.146
ACGGCGGA | 0.236
CACGGTTA | 0.27
CAAATTCC | 0.261
CCATAGAA | -0.151
AAATGTAT | 0.016
CAAGCCGA | 0.297
GGTCTTCA | -0.149
AAGCACAG | -0.0795
AACATTAT | 0.0108
CAGATGTA | -0.257
GGGGATAA | 0.00287
AAAGCAAC | -0.0821
AACAGTCG | 0.0503
TCTAGCCA | -0.0836

Sequence | PBM E-score
CCCTTCGC | -0.135
ACTCCGGG | 0.303
ACAGTATG | -0.0695
AGTCCACA | -0.167
CACTTCCA | -0.0868
AGCGCCTC | 0.0589
ACCCCACT | -0.0225
CATATAAC | -0.0403
CGGGTTCA | 0.223
ATCAACGA | -0.0442
TATAATCA | 0.0526
CAGGACAC | -0.0421
AAATATAT | 0.141
AACAACCG | 0.285
CGCAAAAA | 0.076
CAAGAATC | 0.097
TGCTGACA | -0.221
GCCAAGTA | -0.22
CGCTACTA | 0.0818
GCACGAAA | -0.0901
GCGCTGTA | -0.13
ATTCGTGA | -0.239
ACATTGCG | -0.0578
AACACCCA | -0.0859
ATCATATC | 0.129

Sequence | PBM E-score
GACAATGA | -0.112
GAGTGCCA | -0.0766
ATAGAGAT | -0.26
GCAGCCGA | 0.396
TCGGGTCA | 0.427
CGCTATAA | -0.0292
AAGCGTGT | -0.22
AGTTGTTA | -0.169
ATCCGCCG | 0.371
AGCCAGTG | -0.089
AACACTCT | -0.0232
CCCTGCGG | 0.0663
AAAAGTGG | 0.0396
ACAATGTC | 0.0466
AGTACTAT | -0.119
CCAAATGC | -0.0702
ATTACTCA | -0.137
ACTATGCC | 0.0259
CCCGATGA | 0.324
TATGGCGA | -0.194
ATAGAGAA | -0.0133
ACAGGCAC | -0.185
CAGTCAAA | -0.0991
CTAATCGA | -0.105
ACTCTGAA | 0.0451

Sequence | PBM E-score
AATACCGA | 0.35
CGTGACTA | -0.158
CAATGCAG | -0.155
CTTACAGA | -0.173
AGCGCAGC | -0.0705
AGATAAGA | 0.0745
AGTTAACC | 0.141
AGGAGCAT | -0.0343
CGAGACGC | 0.14
AATACATT | -0.112
CGCATAGA | -0.24
CACTTGAA | -0.0917
AAACGCTT | -0.109
TCTTAACA | -0.223
CCCCCTTA | -0.265
AGCTTGAC | -0.00728
GAATCACA | 0.0756
CCCTACTC | 0.0985
AGTGACAC | -0.0164
AATCTACA | -0.0631
AGATACCG | 0.28
ACGTAGGC | -0.239
GGCGTTAC | -0.00334
ACCTTAGG | -0.115
ACGAAGGG | -0.343

Sequence | PBM E-score
CCGTCACA | 0.171
TACTTTCA | 0.0654
CTTACATA | -0.119
CAATCGTC | -0.187
AAAGCTCT | -0.00412
AACCTATC | -0.0421
AGCGGAGG | -0.0445
CTTGGCTC | -0.031
ATTGAATG | -0.102
GACCGATC | 0.133
AAGGTCCA | -0.0963
GTGTTGAA | -0.185
CATAGGTC | -0.228
GGGCCCCA | -0.13
AGAAGCCC | 0.151
CGCAGACG | -0.0467
ATCCTGCA | -0.184
AGTCCTCA | -0.00786
CAAGTACG | -0.234
CGCTTAAC | -0.0476
CAGACGAG | -0.12
CCGCGCAG | 0.126
CCGTATCG | 0.158
GGGCCACA | -0.0749
ATTCGCGC | -0.0127

Sequence | PBM E-score
CCGTCGTC | 0.103
CCCTATAC | -0.154
CCCGGTGC | 0.188
ATCGGACA | 0.196
ACCCCAAG | -0.022
CGGAAGCA | 0.435
ATTGGCGG | 0.106
TCCGCAAA | 0.221
GCGGCTGA | 0.0348
CGGATTAG | 0.246
AAGATCTA | -0.154
AACGTCCA | -0.063
GACCTTAC | 0.113
CGTGAATA | -0.097
AGTGGTCG | 0.057
CCTATACG | -0.294
TAGTTCAA | 0.0204
GGAGTCCC | 0.063
AACTCACG | -0.054
TAGTGAGA | -0.0195
AAAAAATG | 0.117
GTTATAGA | -0.202
CGGCGGTA | 0.299
GGGAAGGA | 0.0823
CCAACGGC | -0.0203

Sequence | PBM E-score
ATCTAACA | -0.00015
ATGGAGCG | -0.159
ACTCCCCT | -0.00521
CGCCACAA | -0.0226
GATCCTAC | -0.0241
CAAAGTGC | -0.181
GGGGCCGA | 0.174
CTGTGGCA | -0.0921
TAGATCCA | -0.148
AAGGTACT | -0.07
ACTATCAC | -0.0552
CGTGATTC | 0.114
ACGGGGGC | -0.0265
TCGCCACA | -0.0788
CATAGTAA | -0.149
CCTTTGAA | -0.203
ATCTGGCG | -0.0805
CCTGTTAG | -0.0712
ACTCGTAA | 0.0295
CCAACAGC | -0.0537
GAGGCGGA | 0.213
AAGTACCC | 0.214
CATATATC | -0.0674
AGGTGTAA | -0.175
ATCTCTGG | -0.184

Sequence | PBM E-score
CGCTGGTC | -0.0414
TGGTGACA | -0.15
CCAGACAG | -0.115
ATCGCGAT | -0.122
AATACCCG | 0.431
CTGGCAAA | -0.114
ATCTTCGA | -0.171
GTGCGATA | -0.131
GCGTGAAA | -0.015
ACTCCAAT | -0.176
ATGACTGC | -0.129
GAGTGTGC | 0.162
TCCTCCAA | -0.181
CTGAACTC | -0.175
ATGACTTG | 0.0236
ACTATGTA | -0.199
GCCCACGA | -0.238
AGTGCAAG | -0.153
AGCGAGTC | -0.18
